# Data from article PMC4336329 (PLoS ONE, 2015).
# Hit rate of the full screen: of about 310,000 compounds, about 14,000 (4.5%) showed an effect of 50% or more. The effect is printed as a negative number. The list shows a part of the results.
# Target: human ether-à-go-go-related gene (hERG) potassium channel (human, UniProt Q12809)
# Assay: primary screen, population patch clamp on CHO cells stably expressing hERG
# 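Also: peak tail current of the secondary pulse compared with the same well before compound.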
# Sequence of human ether-à-go-go-related gene (hERG) potassium channel (Q12809 whole entry, looked up): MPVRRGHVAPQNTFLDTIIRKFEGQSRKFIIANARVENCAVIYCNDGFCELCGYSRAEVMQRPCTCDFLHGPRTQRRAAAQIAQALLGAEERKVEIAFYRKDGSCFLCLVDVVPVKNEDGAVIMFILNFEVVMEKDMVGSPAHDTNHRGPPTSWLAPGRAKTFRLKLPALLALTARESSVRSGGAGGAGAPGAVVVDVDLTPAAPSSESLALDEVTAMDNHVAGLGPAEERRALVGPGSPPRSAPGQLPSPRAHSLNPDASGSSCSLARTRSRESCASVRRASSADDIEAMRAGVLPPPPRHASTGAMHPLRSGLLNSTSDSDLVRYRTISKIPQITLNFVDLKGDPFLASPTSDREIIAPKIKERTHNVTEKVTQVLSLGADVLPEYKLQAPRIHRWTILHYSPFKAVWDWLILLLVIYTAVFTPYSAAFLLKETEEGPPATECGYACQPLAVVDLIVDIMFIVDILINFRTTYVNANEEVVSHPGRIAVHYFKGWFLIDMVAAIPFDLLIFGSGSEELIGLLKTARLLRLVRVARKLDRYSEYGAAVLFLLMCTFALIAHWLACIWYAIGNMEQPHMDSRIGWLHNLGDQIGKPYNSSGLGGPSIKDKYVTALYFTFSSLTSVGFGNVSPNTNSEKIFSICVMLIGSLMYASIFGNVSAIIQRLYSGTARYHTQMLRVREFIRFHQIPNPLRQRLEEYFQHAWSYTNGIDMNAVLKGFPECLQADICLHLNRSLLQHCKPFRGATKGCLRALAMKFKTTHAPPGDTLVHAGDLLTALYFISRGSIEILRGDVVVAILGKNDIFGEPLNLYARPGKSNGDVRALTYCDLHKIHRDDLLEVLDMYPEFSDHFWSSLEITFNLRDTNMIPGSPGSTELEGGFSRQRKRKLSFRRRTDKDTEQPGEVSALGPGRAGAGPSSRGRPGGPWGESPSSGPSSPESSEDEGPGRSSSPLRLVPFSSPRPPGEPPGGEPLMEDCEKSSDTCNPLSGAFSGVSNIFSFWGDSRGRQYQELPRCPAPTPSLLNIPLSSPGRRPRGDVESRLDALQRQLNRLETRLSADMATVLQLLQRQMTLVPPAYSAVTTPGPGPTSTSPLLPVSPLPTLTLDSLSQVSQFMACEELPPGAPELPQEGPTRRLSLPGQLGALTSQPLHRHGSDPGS
row,Structure (SMILES),"hERG current change (%, negative = inhibition) at 10uM [%]"
1,O=C(Nc1cccc(Cl)c1)c1cnc[nH]1,14.5
2,O=C(Nc1nccs1)c1ccc(-c2ccc(F)c(Cl)c2)o1,-3.09
3,CC1CCCCN1C(=O)CCn1c(=O)oc2ccccc21 (centres unmarked),13.3
4,Cc1ccc(S(=O)(=O)Nc2ccc(S(=O)(=O)Nc3cc(C)nc(C)n3)cc2)cc1,23.3
5,Cc1sc(NC(=O)/C=C/c2ccc(C(C)C)cc2)c(C#N)c1C,1.67
6,CCOC(=O)CCCC(=O)N1CCOCCOCCN(C(=O)CCCC(=O)OCC)CCOCCOCC1,10.5
7,O=c1oc2ccc(Br)cc2cc1S(=O)(=O)c1ccc(F)cc1,-0.784
8,Cc1ccc(-n2nc3c4c(cccc4c2=O)-c2ccccc2-3)cc1,-5.9
9,O=C1COc2ccc(C(=O)CSc3ccc(Br)cc3)cc2N1,8.96
10,COc1ccc(S(=O)(=O)NNC(=O)c2ccc(-n3c(C)ccc3C)cc2)cc1,15.6
11,CCN(CC)C(=O)CN(c1ccc(C)cc1)S(=O)(=O)c1ccc(SC)cc1,-28.5
12,Cc1ccc(C(=O)C(C)Sc2nnc(N)s2)cc1 (centres unmarked),0.236
13,CCCCCC1=CCC/C1=N\NC(=O)c1ccc2c(c1)OCO2,-3.16
14,Cc1nnc(NC(=O)CSc2nnc(C)n2-c2ccc(F)cc2)s1,23.6
15,O=C(COc1cccc2cccnc12)N/N=C/c1cccn1-c1ccc(F)cc1,-14
16,CCCCC(=O)N/N=C/c1ccc(N2CCOCC2)c([N+](=O)[O-])c1,-10.6
17,Cc1nc(N2CCN(c3ccccn3)CC2)c2c(C)c(C(=O)N3CCN(c4cccc(Cl)c4)CC3)sc2n1,2.31
18,O=C(NC1CCCC1)C(c1ccc(Cl)cc1)N1CCc2ccccc21 (centres unmarked),11.9
19,CCOC(=O)N1CCN(CCC(=O)Nc2ccc(OC)cc2)CC1,-1.76

row,Structure (SMILES),"hERG current change (%, negative = inhibition) at 10uM [%]"
1,Cn1c(CCNC(=O)c2ccc(Cl)cc2)n[nH]c1=S,14.5
2,CC(C)NC(=O)c1onc(CSc2ccccn2)c1C(=O)NC(C)C,9.42
3,CN=C(C)/C(C(=O)OC)=C(/O)c1c(F)cccc1F,7.13
4,CC1CCN(C(=O)CSc2nncn2-c2ccccn2)CC1,-14.4
5,N#CC1=C(N)Oc2cc(N)ccc2C1c1ccccc1Cl (centres unmarked),6.56
6,O=C(COc1ccc(C(F)(F)F)cc1[N+](=O)[O-])Nc1cccc(C(F)(F)F)c1,5.11
7,COCCNC(=O)[C@H](CSCc1ccccc1)N1Cc2ccccc2C1=O,-42.6
8,Cc1cccc(NS(=O)(=O)c2cccc(C(=O)N3CCCC(C(F)(F)F)C3)c2)c1 (centres unmarked),-19.4
9,CC(C)c1ccc(C(C(=O)NC2CCCC2)N(C(=O)CNC(=O)c2ccco2)c2cccnc2)cc1 (centres unmarked),0.376
10,Cc1ccc2nsnc2c1NC(=O)c1ccc2c(c1)OCCO2,6.41
11,CCN(CC)S(=O)(=O)c1cc(C(=O)OC(C)C(=O)NCc2ccco2)ccc1C (centres unmarked),-15.8
12,CSCc1ccc(C(=O)NC(C)c2cnn(-c3ccccn3)c2C)o1 (centres unmarked),-0.643
13,O=S(=O)(c1ccc(Cl)c(NC(=S)N/N=C/c2ccc(O)cc2)c1)N1CCOCC1,-21.1
14,Cc1cc(C)n2nc(Cc3ccccc3)nc2n1,-9.09
15,Cc1ccc(Nc2nc(NCCCN3CCOCC3)nc(N)c2[N+](=O)[O-])cc1,-66.1
16,Cc1nc(-c2ccc(F)cc2)c(CC(=O)Nc2cccc(S(=O)(=O)N3CCOCC3)c2)s1,-15.8
17,Cc1c(CCOC(=O)CC23CC4CC(CC(C4)C2)C3)sc[n+]1CC(=O)c1ccc(Br)cc1.[Br-],-75.1
18,COc1ccccc1Cc1nc(-c2cccnc2)no1,14.8
19,COc1ccc(CCNC(=O)COC(=O)c2sc(C)nc2C)cc1,-10.8

row,Structure (SMILES),"hERG current change (%, negative = inhibition) at 10uM [%]"
1,CSc1ccccc1OCc1cc(C(=O)N(C)Cc2nonc2C)no1,-2.7
2,CCCN1CCC(NC(=O)Cc2cccc(C)c2)CC1,-3.07
3,O=S(=O)(Nc1nc2ccccc2nc1Cl)c1ccc(Br)cc1,27.9
4,CC(=O)Nc1ccc(S(=O)(=O)NCCSc2ccccn2)cc1,1.63
5,CCOC(=O)c1ccc(Nc2ccc([N+](=O)[O-])cn2)cc1,10.4
6,CC(=O)Nc1ccc(S(=O)(=O)N(C)CC(=O)OCC(=O)Nc2ccc3c(c2)OCO3)cc1,9.31
7,CCOCCCNC(=O)C1CCN(Cc2cccc(OCc3ccccc3)c2)CC1.O=C(O)C(=O)O,-14.1
8,O=C1CC(c2ccc(Cl)cc2)n2nc(N3C(=O)CCC3=O)nc2N1 (centres unmarked),17.2
9,CCOc1nc(-c2ccc(OC)cc2)ccc1-c1noc(-c2cc(OC)c(OC)c(OC)c2)n1,-3.98
10,O=C(Cc1ccc(N2CCNC2=O)cc1)N1CCCC(Nc2ccc(F)c(F)c2)C1 (centres unmarked),-13.1
11,CC(/C=C/c1ccccc1)=N\Nc1ccccc1[N+](=O)[O-],14.2
12,C=CCNC(=O)c1ccc(N(Cc2ccc(Cl)cc2)S(C)(=O)=O)cc1,-33.5
13,O=C(Nc1nc(-c2ccccc2)cs1)NC1CCCCC1,9.58
14,CC(NC(=O)c1ccccc1)c1nc2ccccc2n1Cc1ccccc1F (centres unmarked),0.996
15,CCOC(=O)C1=C(O)CSC1=Nc1ccc(Cl)cc1,13.5
16,O=C(/C=C/Sc1ncn[nH]1)c1ccc(Cl)cc1,2.27
17,CC(C)(C)OC(=O)N1Cc2[nH]c3ccccc3c2C[C@@H]1C(=O)O,13
18,COc1ccc(C(=O)NC(=S)NNC(=O)c2cnccn2)cc1,7.89
